The supplement of paper PMC9151546
Many values rest on one well or one pass, so single values are uncertain.

Legend:
[1] = test system: CHO-K1; experiment: relative survival (nuclei to bead ratio vs DMSO control) (% of vehicle control); higher = more surviving cells
Experimental: (§1)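 Flow-cytometric in vitro micronucleus assay (Litron MicroFlow) in CHO-K1 cells in 96-well plates, 19 concentrations (4.5-200 µM, n=1 per concentration). Without S9, cells were exposed for 24 h and sampled at 48 h. With Aroclor 1254-induced rat liver S9, cells were exposed for 3-4 h and sampled at 27-28 h. Read-outs are %MN and %hypodiploid nuclei relative to nucleated events, and relative survival as the nuclei-to-bead ratio versus the 1% DMSO vehicle control (x100).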

[2] = test system: CHO-K1; experiment: micronucleus frequency (% of nucleated events); higher = more micronuclei (genotoxic)
[3] = test system: CHO-K1; experiment: hypodiploid nuclei frequency (% of nucleated events); higher = more hypodiploid events (aneugenic)
Experimental: as §1
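Throughout, for hypodiploid nuclei frequency (% of nucleated events): hypodiploid nuclei gated on a flow cytometer with 488 nm excitation after SYTOX Green staining, cultures at 37 °C, positive controls vinblastine without S9 and cyclophosphamide with S9.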
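Throughout, for micronucleus frequency (% of nucleated events): cells lysed with nuclei stained by SYTOX Green, then micronucleus-gated events counted against nucleated events by flow cytometry with 488 nm excitation.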
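Throughout, for relative survival (nuclei to bead ratio vs DMSO control): Lysed-cell nuclei stained with SYTOX Green and counted against counting beads by flow cytometry at 488 nm excitation, with vinblastine (no S9) and cyclophosphamide (plus S9) as positive controls.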

Oc1ccccc1Cl [2-Chlorophenol]
Conditions	hypodiploid nuclei frequency, [3] [%]	micronucleus frequency, [2] [%]	relative survival, [1]
concentration: 4.5 (µM), S9 metabolic activation: with S9, exposure time: 3-4 hours	0.21	1.09	71.6
concentration: 4.5 (µM), S9 metabolic activation: without S9, exposure time: 24 hours	0.6	1.96	110
concentration: 5.63 (µM), S9 metabolic activation: with S9, exposure time: 3-4 hours	0.18	1.28	76.9
concentration: 5.63 (µM), S9 metabolic activation: without S9, exposure time: 24 hours	0.5	1.22	127
concentration: 7.04 (µM), S9 metabolic activation: with S9, exposure time: 3-4 hours	0.26	0.82	53.3
concentration: 7.04 (µM), S9 metabolic activation: without S9, exposure time: 24 hours	0.54	1.62	120
concentration: 8.8 (µM), S9 metabolic activation: with S9, exposure time: 3-4 hours	0.12	1.16	75.5
concentration: 8.8 (µM), S9 metabolic activation: without S9, exposure time: 24 hours	0.62	1.22	102
concentration: 11 (µM), S9 metabolic activation: with S9, exposure time: 3-4 hours	0.16	1.48	65.3
concentration: 11 (µM), S9 metabolic activation: without S9, exposure time: 24 hours	0.6	1.4	116
concentration: 13.7 (µM), S9 metabolic activation: with S9, exposure time: 3-4 hours	0.15	1.73	85.4
concentration: 13.7 (µM), S9 metabolic activation: without S9, exposure time: 24 hours	0.66	1.44	123
concentration: 17.2 (µM), S9 metabolic activation: with S9, exposure time: 3-4 hours	0.24	1.74	83.6
concentration: 17.2 (µM), S9 metabolic activation: without S9, exposure time: 24 hours	0.5	1.42	134
concentration: 21.5 (µM), S9 metabolic activation: with S9, exposure time: 3-4 hours	0.34	1.63	72.8
concentration: 21.5 (µM), S9 metabolic activation: without S9, exposure time: 24 hours	0.62	1.56	102
concentration: 26.8 (µM), S9 metabolic activation: with S9, exposure time: 3-4 hours	0.16	1.56	111
concentration: 26.8 (µM), S9 metabolic activation: without S9, exposure time: 24 hours	0.64	0.82	117
concentration: 33.6 (µM), S9 metabolic activation: with S9, exposure time: 3-4 hours	0.32	1	81.8
concentration: 33.6 (µM), S9 metabolic activation: without S9, exposure time: 24 hours	0.46	1.24	107
concentration: 41.9 (µM), S9 metabolic activation: with S9, exposure time: 3-4 hours	0.28	1.58	91.6
concentration: 41.9 (µM), S9 metabolic activation: without S9, exposure time: 24 hours	0.6	1.08	114
concentration: 52.4 (µM), S9 metabolic activation: with S9, exposure time: 3-4 hours	0.2	1.44	86.4
concentration: 52.4 (µM), S9 metabolic activation: without S9, exposure time: 24 hours	0.68	1.7	122
concentration: 65.5 (µM), S9 metabolic activation: with S9, exposure time: 3-4 hours	0.09	1.29	58.8
concentration: 65.5 (µM), S9 metabolic activation: without S9, exposure time: 24 hours	0.68	1.84	117
concentration: 81.9 (µM), S9 metabolic activation: with S9, exposure time: 3-4 hours	0.24	1.22	83.7
concentration: 81.9 (µM), S9 metabolic activation: without S9, exposure time: 24 hours	0.9	1.82	105
concentration: 102 (µM), S9 metabolic activation: with S9, exposure time: 3-4 hours	0.2	1.76	70.3
concentration: 102 (µM), S9 metabolic activation: without S9, exposure time: 24 hours	0.62	2.08	106
concentration: 128 (µM), S9 metabolic activation: with S9, exposure time: 3-4 hours	0.3	2.21	58.3
concentration: 128 (µM), S9 metabolic activation: without S9, exposure time: 24 hours	1.52	3.58	103
concentration: 160 (µM), S9 metabolic activation: with S9, exposure time: 3-4 hours	0.28	1.78	75
concentration: 160 (µM), S9 metabolic activation: without S9, exposure time: 24 hours	1.12	1.72	119
concentration: 200 (µM), S9 metabolic activation: with S9, exposure time: 3-4 hours	0.37	2.95	71.3
concentration: 200 (µM), S9 metabolic activation: without S9, exposure time: 24 hours	1.04	2.34	86.3

CCCCC(CC)CO (stereo unspecified) [2-Ethyl-1-hexanol]
Conditions	hypodiploid nuclei frequency, [3] [%]	micronucleus frequency, [2] [%]	relative survival, [1]
concentration: 4.5 (µM), S9 metabolic activation: with S9, exposure time: 3-4 hours	0.26	0.86	117
concentration: 4.5 (µM), S9 metabolic activation: without S9, exposure time: 24 hours	0.44	1.3	109
concentration: 5.63 (µM), S9 metabolic activation: with S9, exposure time: 3-4 hours	0.22	1.38	99.7
concentration: 5.63 (µM), S9 metabolic activation: without S9, exposure time: 24 hours	0.52	0.96	127
concentration: 7.04 (µM), S9 metabolic activation: with S9, exposure time: 3-4 hours	0.3	1.68	102
concentration: 7.04 (µM), S9 metabolic activation: without S9, exposure time: 24 hours	0.58	1.1	114
concentration: 8.8 (µM), S9 metabolic activation: with S9, exposure time: 3-4 hours	0.24	1.04	101
concentration: 8.8 (µM), S9 metabolic activation: without S9, exposure time: 24 hours	0.46	1.48	90.1
concentration: 11 (µM), S9 metabolic activation: with S9, exposure time: 3-4 hours	0.12	1.2	108
concentration: 11 (µM), S9 metabolic activation: without S9, exposure time: 24 hours	0.42	1.12	109
concentration: 13.7 (µM), S9 metabolic activation: with S9, exposure time: 3-4 hours	0.16	0.92	99.1
concentration: 13.7 (µM), S9 metabolic activation: without S9, exposure time: 24 hours	0.54	1.02	105
concentration: 17.2 (µM), S9 metabolic activation: with S9, exposure time: 3-4 hours	0.26	0.92	127
concentration: 17.2 (µM), S9 metabolic activation: without S9, exposure time: 24 hours	0.34	0.94	114
concentration: 21.5 (µM), S9 metabolic activation: with S9, exposure time: 3-4 hours	0.18	1.12	129
concentration: 21.5 (µM), S9 metabolic activation: without S9, exposure time: 24 hours	0.38	0.94	90.1
concentration: 26.8 (µM), S9 metabolic activation: with S9, exposure time: 3-4 hours	0.1	0.96	122
concentration: 26.8 (µM), S9 metabolic activation: without S9, exposure time: 24 hours	0.58	1.64	91.1
concentration: 33.6 (µM), S9 metabolic activation: with S9, exposure time: 3-4 hours	0.16	1.02	125
concentration: 33.6 (µM), S9 metabolic activation: without S9, exposure time: 24 hours	0.7	1.34	105
concentration: 41.9 (µM), S9 metabolic activation: with S9, exposure time: 3-4 hours	0.2	1.3	105
concentration: 41.9 (µM), S9 metabolic activation: without S9, exposure time: 24 hours	0.64	1.58	127
concentration: 52.4 (µM), S9 metabolic activation: with S9, exposure time: 3-4 hours	0.26	0.84	100
concentration: 52.4 (µM), S9 metabolic activation: without S9, exposure time: 24 hours	0.64	1.8	103
concentration: 65.5 (µM), S9 metabolic activation: with S9, exposure time: 3-4 hours	0.16	0.96	99.4
concentration: 65.5 (µM), S9 metabolic activation: without S9, exposure time: 24 hours	0.84	1.34	119
concentration: 81.9 (µM), S9 metabolic activation: with S9, exposure time: 3-4 hours	0.14	1.12	97.4
concentration: 81.9 (µM), S9 metabolic activation: without S9, exposure time: 24 hours	0.64	1.72	95.7
concentration: 102 (µM), S9 metabolic activation: with S9, exposure time: 3-4 hours	0.2	1.66	95.2
concentration: 102 (µM), S9 metabolic activation: without S9, exposure time: 24 hours	1	1.62	101
concentration: 128 (µM), S9 metabolic activation: with S9, exposure time: 3-4 hours	0.12	1.16	93.3
concentration: 128 (µM), S9 metabolic activation: without S9, exposure time: 24 hours	0.56	1.38	103
concentration: 160 (µM), S9 metabolic activation: with S9, exposure time: 3-4 hours	0.16	1.02	97.4
concentration: 160 (µM), S9 metabolic activation: without S9, exposure time: 24 hours	0.9	1.64	96.3
concentration: 200 (µM), S9 metabolic activation: with S9, exposure time: 3-4 hours	0.14	1.3	78.1
concentration: 200 (µM), S9 metabolic activation: without S9, exposure time: 24 hours	1	1.98	81.1
